From the supplement of paper PMC8728848
This is one part of the list.

Tests used:
Test in all cases: glycan array binding signal (z-score within array); higher = stronger binding
Conditions in all cases: glycan notation: IUPAC condensed, linker removed
[1] = target: Gal3S(b1-4)[Fuc(a1-3)]GlcNAc6S
Summary of the method: (§1)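 From the Consortium for Functional Glycomics database, 3228 arrays were curated, keeping only those whose protein sequence was available. Binding is given as a within-array Z-score averaged across arrays sharing a protein sequence and across linkers. Negative Z-scores can be read as non-binding.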

Gal3S4S(b1-4)GlcNAc = target: Gal3S4S(b1-4)GlcNAc
Summary of the method: as §1

Gal3S6S(b1-4)GlcNAc = target: Gal3S6S(b1-4)GlcNAc
Summary of the method: as §1

Gal3S6S(b1-4)GlcNAc6S = target: Gal3S6S(b1-4)GlcNAc6S
Summary of the method: as §1

Gal4S(b1-4)GlcNAc = target: Gal4S(b1-4)GlcNAc
Summary of the method: as §1

Gal4S6S(b1-4)GlcNAc = target: Gal4S6S(b1-4)GlcNAc
Summary of the method: as §1

Gal6P(b1-4)GlcNAc = target: Gal6P(b1-4)GlcNAc
Summary of the method: as §1

Gal6S(b1-3)GlcNAc = target: Gal6S(b1-3)GlcNAc
Summary of the method: as §1

Gal6S(b1-3)GlcNAc6S = target: Gal6S(b1-3)GlcNAc6S
Summary of the method: as §1

Gal6S(b1-4)Glc = target: Gal6S(b1-4)Glc
Summary of the method: as §1

Gal6S(b1-4)Glc6S = target: Gal6S(b1-4)Glc6S
Summary of the method: as §1

Gal6S(b1-4)GlcNAc = target: Gal6S(b1-4)GlcNAc
Summary of the method: as §1

Gal6S(b1-4)GlcNAc6S = target: Gal6S(b1-4)GlcNAc6S
Summary of the method: as §1

GalNAc(a1-3)Gal = target: GalNAc(a1-3)Gal
Summary of the method: as §1

GalNAc(a1-3)GalNAc = target: GalNAc(a1-3)GalNAc
Summary of the method: as §1

[2] = target: GalNAc(a1-3)GalNAc(a1-3)Gal(a1-4)Gal(b1-4)GlcNAc
Summary of the method: as §1

[3] = target: GalNAc(a1-3)GalNAc(b1-3)Gal(a1-4)Gal(b1-4)Glc
Summary of the method: as §1

[4] = target: GalNAc(a1-3)GalNAc(b1-3)Gal(a1-4)Gal(b1-4)GlcNAc
Summary of the method: as §1

GalNAc(b1-3)Gal = target: GalNAc(b1-3)Gal
Summary of the method: as §1

[5] = target: GalNAc(b1-3)Gal(a1-4)Gal(b1-4)GlcNAc
Summary of the method: as §1

[6] = target: GalNAc(b1-3)Gal(a1-4)Gal(b1-4)GlcNAc(b1-3)Gal(b1-4)Glc
Summary of the method: as §1

[7] = target: GalNAc(b1-3)Gal(a1-6)Gal(b1-4)Glc
Summary of the method: as §1

GalNAc(b1-3)GalNAc = target: GalNAc(b1-3)GalNAc
Summary of the method: as §1

GalNAc(b1-3)GlcNAc = target: GalNAc(b1-3)GlcNAc
Summary of the method: as §1

GalNAc(b1-4)Gal(b1-4)Glc = target: GalNAc(b1-4)Gal(b1-4)Glc
Summary of the method: as §1

GalNAc(b1-4)GlcNAc = target: GalNAc(b1-4)GlcNAc
Summary of the method: as §1

[8] = target: GalNAc(b1-4)GlcNAc(b1-2)Man
Summary of the method: as §1

[9] = target: GalNAc(b1-4)GlcNAc(b1-2)Man(a1-3)[GalNAc(b1-4)GlcNAc(b1-2)Man(a1-6)]Man(b1-4)GlcNAc(b1-4)GlcNAc
Summary of the method: as §1

[10] = target: GalNAc(b1-4)GlcNAc(b1-3)GalNAc(b1-4)GlcNAc
Summary of the method: as §1

GalNAc(b1-4)GlcNAc6S = target: GalNAc(b1-4)GlcNAc6S
Summary of the method: as §1

GalNAc(b1-6)GalNAc = target: GalNAc(b1-6)GalNAc
Summary of the method: as §1

GalNAc3S(b1-4)GlcNAc = target: GalNAc3S(b1-4)GlcNAc
Summary of the method: as §1

GalNAc3S(b1-4)GlcNAc3S = target: GalNAc3S(b1-4)GlcNAc3S
Summary of the method: as §1

[11] = target: GalNAc3S(b1-4)[Fuc(a1-3)]GlcNAc
Summary of the method: as §1

GalNAc4S6S(b1-4)GlcNAc = target: GalNAc4S6S(b1-4)GlcNAc
Summary of the method: as §1

GalNAc6S(b1-4)GlcNAc = target: GalNAc6S(b1-4)GlcNAc
Summary of the method: as §1

Glc(a1-4)Glc = target: Glc(a1-4)Glc
Summary of the method: as §1

[12] = target: Glc(a1-4)Glc(a1-4)Glc(a1-4)Glc
Summary of the method: as §1

B1: PpFlo2 (Pichia pastoris) (protein)
chain: MGSSHHHHHHSSGLVPRGSHMDDSGNGDNSDTAYGCDITTNAVDGFDATIYQYNANDLRLIRDPTFMSTGYLGRNVLNKISGVTVPGFNIWNPSSRTATVYGVKNVNYYNMVLELKGYFKADVSGDYKLTLSHIDDSSMLFFGKETAFKCCDAGSIPLNEAPTDYSLFTIKPSNQVNSEVISATQYLEAGKYYPVRIVFVNALERARFDFKLTIPSGAVLDDFQNYIYQFGDLDENSCHE
glycan array binding signal (z-score) [1]: -0.274 | glycan array binding signal (z-score) (Gal3S4S(b1-4)GlcNAc): -0.299 | glycan array binding signal (z-score) (Gal3S6S(b1-4)GlcNAc): -0.291 | glycan array binding signal (z-score) (Gal3S6S(b1-4)GlcNAc6S): -0.295 | glycan array binding signal (z-score) (Gal4S(b1-4)GlcNAc): -0.299 | glycan array binding signal (z-score) (Gal4S6S(b1-4)GlcNAc): -0.297 | glycan array binding signal (z-score) (Gal6P(b1-4)GlcNAc): -0.266 | glycan array binding signal (z-score) (Gal6S(b1-3)GlcNAc): -0.292 | glycan array binding signal (z-score) (Gal6S(b1-3)GlcNAc6S): -0.286 | glycan array binding signal (z-score) (Gal6S(b1-4)Glc): -0.298 | glycan array binding signal (z-score) (Gal6S(b1-4)Glc6S): -0.302 | glycan array binding signal (z-score) (Gal6S(b1-4)GlcNAc): -0.295 | glycan array binding signal (z-score) (Gal6S(b1-4)GlcNAc6S): -0.297 | glycan array binding signal (z-score) (GalNAc(a1-3)Gal): -0.299 | glycan array binding signal (z-score) (GalNAc(a1-3)GalNAc): -0.3 | glycan array binding signal (z-score) [2]: -0.348 | glycan array binding signal (z-score) [3]: -0.303 | glycan array binding signal (z-score) [4]: -0.273 | glycan array binding signal (z-score) (GalNAc(b1-3)Gal): -0.291 | glycan array binding signal (z-score) [5]: -0.265 | glycan array binding signal (z-score) [6]: -0.279 | glycan array binding signal (z-score) [7]: -0.302 | glycan array binding signal (z-score) (GalNAc(b1-3)GalNAc): 2.23 | glycan array binding signal (z-score) (GalNAc(b1-3)GlcNAc): -0.268 | glycan array binding signal (z-score) (GalNAc(b1-4)Gal(b1-4)Glc): -0.291 | glycan array binding signal (z-score) (GalNAc(b1-4)GlcNAc): -0.128 | glycan array binding signal (z-score) [8]: -0.241 | glycan array binding signal (z-score) [9]: -0.276 | glycan array binding signal (z-score) [10]: -0.221 | glycan array binding signal (z-score) (GalNAc(b1-4)GlcNAc6S): -0.271 | glycan array binding signal (z-score) (GalNAc(b1-6)GalNAc): -0.273 | glycan array binding signal (z-score) (GalNAc3S(b1-4)GlcNAc): -0.275 | glycan array binding signal (z-score) (GalNAc3S(b1-4)GlcNAc3S): -0.273 | glycan array binding signal (z-score) [11]: -0.277 | glycan array binding signal (z-score) (GalNAc4S6S(b1-4)GlcNAc): -0.272 | glycan array binding signal (z-score) (GalNAc6S(b1-4)GlcNAc): -0.276 | glycan array binding signal (z-score) (Glc(a1-4)Glc): -0.297 | glycan array binding signal (z-score) [12]: -0.302
